Data published in PubChem BioAssay AID651820 (National Center for Advancing Translational Sciences (NCATS), 2012).
Among all 340,000 compounds or so, about 12,000 (3.5%) were called active. Inconclusive means that the source gave no clear call. Such entries were picked first, then a sample of the others. The call rests on the fitted dose curve; in most records, active means well fitted inhibition curve with a large enough effect; inconclusive means small, poorly fitted or top-dose-only effect, or another doubt; inactive means no such curve, though single readings can be large or run the other way. No potency is given beside an inconclusive call; the fits are too rough.

assay: qHTS Assay for Inhibitors of Hepatitis C Virus (HCV); settings: Huh7.5.1 HCVcc-Cre (HCVcc is cell-culture hepatitis C virus) infection, luciferase reporter, 44 h; activity change, negative = inhibition: at 41.8 µM (top of the series) unless noted
Summary of the method: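 Luciferase read-out (15 sec integration) after a 15 min room-temperature substrate step quantifies HCVcc-Cre infection. Cells, 1,000 per well, had compound added 4 h post-plating, then virus at ~0.5 moi, and were cultured 44 h.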
On the % scale 0 is the no-effect control and ±100 the full control effect; potency means the concentration at half of the fitted maximal effect; tags describe the fitted curve by direction and shape.

Structure (SMILES)	Potency	activity change, negative = inhibition
CCC(C)Oc1ccc(C(=O)Nc2ccc(CN3CCOCC3)cc2)cc1 (stereo not drawn)	active: 25.1 µM	
CCOc1cc(C(=O)Nc2cccc(OCC(=O)N3CCOCC3)c2)cc(OCC)c1OCC	inconclusive [inhibitor, partial curve]	
COc1cccc(/C=C2\Oc3cc(OCC(=O)N4CCCCC4)ccc3C2=O)c1OC	inconclusive [inhibitor, single point]	
c1ccc(CN2CCC(Nc3nc(-c4ccccc4)nc4ccccc34)CC2)cc1	inconclusive [inhibitor, single point]	
CCN(CC(=O)Nc1ccc2c(c1)OCCO2)CC(=O)Nc1ccc(C)c([N+](=O)[O-])c1	inconclusive [inhibitor, partial curve]	
Cc1cc(C)nc(N(C#N)CC(=O)c2ccccc2)n1	active: 15.8 µM	
Cc1ccc(N(C)S(=O)(=O)c2cccc(C(=O)OCC(=O)c3c(N)n(C)c(=O)n(C)c3=O)c2)cc1	inconclusive [inhibitor, single point]	
COC(=O)C1=C(c2ccc(F)cc2OCc2ccccc2)C[C@@H]2CC[C@H]1N2C(=O)NCc1ccc(Cl)cc1	inconclusive [inhibitor, partial curve]	
Cc1ccc(C(C(=O)NC(C)(C)C)N(CC2CCCO2)C(=O)Cn2nnc(-c3ccc(C)o3)n2)cc1 (stereo not drawn)	inconclusive [inhibitor, single point]	
CCOC(=O)N1CCN(S(=O)(=O)N2CCCC(C(=O)NCc3cccc(OC)c3)C2)CC1 (stereo not drawn)		inactive: -10%
CCC1CN(C(=O)N2CCC(C(=O)NCc3ccc(C)o3)CC2)c2cc(C)ccc2O1 (stereo not drawn)	inconclusive [inhibitor, partial curve]	
CN(Cc1ccccc1)C(=O)CCSc1nc(-c2ccc3c(c2)OCO3)cc(C(F)(F)F)n1	active: 10 µM	
CCC(=O)Nc1ccc(C(=O)Nc2ccc3c(c2)C(=O)N(CC2CCCO2)C3=O)cc1 (stereo not drawn)	inconclusive [inhibitor, full curve]	
CC1CCCCN1c1nc2nonc2nc1N1CCCCC1C (stereo not drawn)		inactive: 4.74%
C/C(=N/NC(N)=S)c1ccccc1[N+](=O)[O-]		inactive: -10.3%
O=C(CCCCCN1C(=O)[C@@H]2Cc3ccccc3CN2C1=O)Nc1cccc(F)c1	inconclusive [inhibitor, single point]	
CCOC(=O)N1CCC(n2c(SCC(=O)N3CCCC3)nc3ccccc3c2=O)CC1	inconclusive [inhibitor, single point]	
Cn1cc([N+](=O)[O-])c(C(=O)Nc2ccc(-c3nc4ccccc4o3)cc2)n1	inconclusive [inhibitor, partial curve]	
COc1ccc(NC(=O)C(NC(=O)OC(C)(C)C)C(C)OCc2ccccc2)cc1 (stereo not drawn)		inactive: 12%
COc1ccc(C2c3[nH]c4ccccc4c3C[C@H]3C(=O)N(C4CCN(Cc5ccccc5)CC4)CC(=O)N23)c(OC)c1 (stereo partly drawn)	inconclusive [inhibitor, single point]	
CCC(=O)N1CCN(c2ccccc2NC(=O)c2cccc(C)c2)CC1	inconclusive [inhibitor, single point]	
Nc1cc(=O)[nH]c(SCC(=O)Nc2ccccc2Sc2ccc(Cl)cc2)n1	inconclusive [inhibitor, single point]	
Cc1ccc(C)c(/C=N/NC(=S)NC(C)C)c1	inconclusive [inhibitor, partial curve]	

Structure (SMILES)	Potency	activity change, negative = inhibition
CCc1nn(CC(=O)NCCC(C)C)c(=O)c2cc3c(OC)cccc3n12	inconclusive [inhibitor, single point]	
COc1ccc(Nc2nc(N3CCOCC3)nc(N3CCOCC3)n2)cc1	inconclusive [inhibitor, full curve]	
COc1cccc(NC(=O)c2cc([N+](=O)[O-])ccc2NCc2cccnc2)c1	inconclusive [inhibitor, single point]	
CC(=O)Nc1ccc(C=NN=C2c3ccccc3-c3ccccc32)cc1	inconclusive [inhibitor, full curve]	
CC(=NO)c1ccc2c(c1)C(=NO)c1ccccc1-2	inconclusive [inhibitor, single point]	
CCc1ccc(S(=O)(=O)c2nnn3c2nc(N2CCOCC2)c2ccccc23)cc1	inconclusive [inhibitor, single point]	
CC(NC(=O)/C(C#N)=C/c1ccc(N2CCOCC2)cc1)c1ccccc1 (stereo not drawn)	inconclusive [inhibitor, partial curve]	
O=c1[nH]c(SCc2ccccc2Cl)nc2c1CCC2		inactive: -21.5%
Cc1nc(CS(=O)(=O)c2ccccc2)cc(Sc2ccccc2Cl)n1		inactive: -21.6%
COc1ccc(/C=C/CN2CCCC(C(=O)c3ccc(OC)c(F)c3)C2)cc1 (stereo not drawn)	inconclusive [inhibitor, full curve, poor fit]	
CCN(CC)S(=O)(=O)c1cc(C(=O)Nc2cccnc2)ccc1Cl	inconclusive [inhibitor, single point]	
CN(C)CCCNS(=O)(=O)c1ccc(Oc2ncc(C(F)(F)F)cc2Cl)cc1	inconclusive [inhibitor, single point]	
COc1ccc(NC(=O)c2c(C)nn(Cc3ccccc3)c2Cl)cc1S(=O)(=O)N1CCOCC1	inconclusive [inhibitor, full curve, poor fit]	
CCN(c1ccc(OC)cc1)S(=O)(=O)c1cc(-c2cc(C)no2)ccc1OC	inconclusive [inhibitor, single point]	
CC(=O)N1c2ccc(S(=O)(=O)NCCC(=O)NCCc3ccc(C)cc3)cc2CC1C (stereo not drawn)	inconclusive [inhibitor, single point]	
Cc1ccn2cc(-c3ccc(Br)cc3)nc2c1	inconclusive [inhibitor, full curve, poor fit]	
Cc1ccc(-n2nc3c(=O)n(CCCC(=O)NCc4ccco4)nc(C)c3c2C)cc1	inconclusive [inhibitor, partial curve]	
CCOC(=O)Cc1c(C)nc(N)[nH]c1=O	inconclusive [inhibitor, single point]	
Cc1c(C)c2ccc(OCC(=O)N[C@@H](Cc3ccccc3)C(=O)O)cc2oc1=O		inactive: 5.91%
CNc1nc(-c2ccc3c(c2)CCN3C(=O)c2ccccc2F)cs1	active: 11.2 µM	
O=C(Nc1cccc(C(F)(F)F)c1)Oc1ccc(Cl)c2cccnc12	inconclusive [inhibitor, single point]	
Cc1cccc(-n2cc(-c3ccccc3)[nH]c2=S)c1	inconclusive [inhibitor, single point]	
Cc1cc(Cl)ccc1OCC(=O)Nc1ccccc1C(=O)N1CCOCC1		inactive: 10.1%

Structure (SMILES)	Potency	activity change, negative = inhibition
CCCCNC(=O)CSc1nc2ccc(Nc3nc(N4CCOCC4)nc(N4CCOCC4)n3)cc2s1	inconclusive [inhibitor, partial curve]	
NC(=O)COC(=O)c1c2c(nc3ccccc13)CCCCC2		inactive: -29.8%
COC(=O)C1(S(=O)(=O)c2cccc3nsnc23)CC1	inconclusive [inhibitor, single point]	
CSc1ccc(/C=N/n2c(COc3ccccc3)n[nH]c2=S)cc1		inactive: 6.66%
COc1ccccc1-c1nc(SCC(=O)N(C)c2ccccc2)c2c(=O)n(C)c(=O)n(C)c2n1	active: 6.31 µM	
CCOC(=O)C1(CCOC)CCN(C(=O)Cc2ccc3ccccc3c2)CC1		inactive: -5.58%
CC(=O)n1c2ccccc2c2c1c1ccccc1n2C	active: 2.24 µM	
FC(F)(F)c1cccc(CN2CCCCCC2)c1		inactive: 0.509%
CCOc1nc(-c2ccc(OC)cc2)ccc1-c1noc(C)n1	inconclusive [inhibitor, single point]	
CC(C)n1c(O)c(N=NC(=O)CNC(=O)CCc2ccccc2)c2ccccc21	inconclusive [inhibitor, single point]	
Oc1ccc(N=Nc2nc(-c3ccccc3)c(-c3ccccc3)[nH]2)cc1	inconclusive [inhibitor, single point]	
CN1CCN(C2CCCCCC2)CC1		inactive: 6.75%
COc1ccc(NC(=O)CC2C(=O)N(c3ccc(Cl)cc3)C(=S)N2NC(=O)c2cccc(F)c2)cc1 (stereo not drawn)		inactive: -1.17%
O=C(N/N=C/c1ccc(Br)s1)c1cccc([N+](=O)[O-])c1		inactive: -6.1%
COc1ccc(CCNC(=O)c2cc(S(=O)(=O)N3CCOCC3)ccc2N2CCCC2)cc1OC	inconclusive [inhibitor, partial curve]	
Cc1cccc(NC(=O)NC2CCCCCCC2)c1		inactive: -7.65%
CC(C)(C)NC(=O)c1ccc(COc2ccc(Cl)cc2Cl)o1	inconclusive [inhibitor, partial curve]	
COCCNC(=O)C(c1ccco1)N(C(=O)Cn1nnc2ccccc21)c1cccc(C)c1C (stereo not drawn)	inactive	
COc1cc(OC)cc(C(=O)N2c3ccc(F)cc3CCC2C)c1 (stereo not drawn)	inconclusive [inhibitor, single point]	
COCC(C)NC(=O)c1cc(-c2ccccc2OC)on1 (stereo not drawn)	inconclusive [inhibitor, single point]	
O=C(NCC(c1cccs1)N1CCOCC1)c1cn(-c2ccccc2)nc1-c1ccc(F)cc1 (stereo not drawn)	inconclusive [inhibitor, single point]	
Cc1cc(C)c2nc(SCc3ccc([N+](=O)[O-])cc3)nc(C)c2c1	inconclusive [inhibitor, full curve, poor fit]	
